# Experimental data published in the supplement of paper PMC12230231.
# System: SIVsab (simian immunodeficiency virus of sabaeus monkeys), single-cycle GFP reporter, in CRFK cells
# Assay: enrichment among infected cells over input (fold); higher = weaker restriction
# Settings: library: human / rhesus combinations
# Method: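 Pools of CRFK cells expressing variants of the TRIM5α v1 loop were challenged with the single-cycle reporter, sorted by GFP and sequenced; mean of two replicates.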
row,Sequence,enrichment
1,"MASGILLNVKEEVTCPICLELLTEPLSLHCGHSFCQACITANHKKSMLYKEGERSCPVCRISYQPENIQPNRHVANIVEKLREVKLSPEEGQKVDHCARHGEKLLLFCQEDSKVICWLCERSQEHRGHHTFLMEEVAQEYHVKLQTALEMLRQKQQEAEKLEADIREEKASWKIQIDYDKTNVSADFEQLREILDWEESNELQNLEKEEEDILKSLTKSETEMVQQTQYMRELISELEHRLQGSMMDLLQGVDGIIKRIENMTLKKPKTFHKNQRRVFRAPDLKGMLDMFRELTDARRYWVDVTLAPNNISHAVIAEDKRQVSSRNPQIMYQAPGTRYTFPSLVNFNYCTGVLGSQSITSGKHYWEVDVSKKSAWILGVCAGFQSDAMYNIEQNENYQPKYGYWVIGLQEGVKYSVFQDGSSHTPFAPFIVPLSVIICPDRVGVFVDYEACTVSFFNITNHGFLIYKFSQCSFSKPVFPYLNPRKCTVPMTLCSPSS [rhesus TRIM5α, 332-344 = QAPGTRYTFPSLV]",1.1488 ± 0.00057
2,"MASGILLNVKEEVTCPICLELLTEPLSLHCGHSFCQACITANHKKSMLYKEGERSCPVCRISYQPENIQPNRHVANIVEKLREVKLSPEEGQKVDHCARHGEKLLLFCQEDSKVICWLCERSQEHRGHHTFLMEEVAQEYHVKLQTALEMLRQKQQEAEKLEADIREEKASWKIQIDYDKTNVSADFEQLREILDWEESNELQNLEKEEEDILKSLTKSETEMVQQTQYMRELISELEHRLQGSMMDLLQGVDGIIKRIENMTLKKPKTFHKNQRRVFRAPDLKGMLDMFRELTDARRYWVDVTLAPNNISHAVIAEDKRQVSSRNPQIMYQAPGTRFTFPTFTNFNYCTGVLGSQSITSGKHYWEVDVSKKSAWILGVCAGFQSDAMYNIEQNENYQPKYGYWVIGLQEGVKYSVFQDGSSHTPFAPFIVPLSVIICPDRVGVFVDYEACTVSFFNITNHGFLIYKFSQCSFSKPVFPYLNPRKCTVPMTLCSPSS [rhesus TRIM5α, 332-344 = QAPGTRFTFPTFT]",0.903 ± 0.14
3,"MASGILLNVKEEVTCPICLELLTEPLSLHCGHSFCQACITANHKKSMLYKEGERSCPVCRISYQPENIQPNRHVANIVEKLREVKLSPEEGQKVDHCARHGEKLLLFCQEDSKVICWLCERSQEHRGHHTFLMEEVAQEYHVKLQTALEMLRQKQQEAEKLEADIREEKASWKIQIDYDKTNVSADFEQLREILDWEESNELQNLEKEEEDILKSLTKSETEMVQQTQYMRELISELEHRLQGSMMDLLQGVDGIIKRIENMTLKKPKTFHKNQRRVFRAPDLKGMLDMFRELTDARRYWVDVTLAPNNISHAVIAEDKRQVSSRNPQIMYGAPGTLFTFPTLVNFNYCTGVLGSQSITSGKHYWEVDVSKKSAWILGVCAGFQSDAMYNIEQNENYQPKYGYWVIGLQEGVKYSVFQDGSSHTPFAPFIVPLSVIICPDRVGVFVDYEACTVSFFNITNHGFLIYKFSQCSFSKPVFPYLNPRKCTVPMTLCSPSS [rhesus TRIM5α, 332-344 = GAPGTLFTFPTLV]",0.227 ± 0.11
4,"MASGILLNVKEEVTCPICLELLTEPLSLHCGHSFCQACITANHKKSMLYKEGERSCPVCRISYQPENIQPNRHVANIVEKLREVKLSPEEGQKVDHCARHGEKLLLFCQEDSKVICWLCERSQEHRGHHTFLMEEVAQEYHVKLQTALEMLRQKQQEAEKLEADIREEKASWKIQIDYDKTNVSADFEQLREILDWEESNELQNLEKEEEDILKSLTKSETEMVQQTQYMRELISELEHRLQGSMMDLLQGVDGIIKRIENMTLKKPKTFHKNQRRVFRAPDLKGMLDMFRELTDARRYWVDVTLAPNNISHAVIAEDKRQVSSRNPQIMYGAPGTRFTFPTFTNFNYCTGVLGSQSITSGKHYWEVDVSKKSAWILGVCAGFQSDAMYNIEQNENYQPKYGYWVIGLQEGVKYSVFQDGSSHTPFAPFIVPLSVIICPDRVGVFVDYEACTVSFFNITNHGFLIYKFSQCSFSKPVFPYLNPRKCTVPMTLCSPSS [rhesus TRIM5α, 332-344 = GAPGTRFTFPTFT]",1.11 ± 0.33
5,"MASGILLNVKEEVTCPICLELLTEPLSLHCGHSFCQACITANHKKSMLYKEGERSCPVCRISYQPENIQPNRHVANIVEKLREVKLSPEEGQKVDHCARHGEKLLLFCQEDSKVICWLCERSQEHRGHHTFLMEEVAQEYHVKLQTALEMLRQKQQEAEKLEADIREEKASWKIQIDYDKTNVSADFEQLREILDWEESNELQNLEKEEEDILKSLTKSETEMVQQTQYMRELISELEHRLQGSMMDLLQGVDGIIKRIENMTLKKPKTFHKNQRRVFRAPDLKGMLDMFRELTDARRYWVDVTLAPNNISHAVIAEDKRQVSSRNPQIMYGAPGTRFPTLTNFNYCTGVLGSQSITSGKHYWEVDVSKKSAWILGVCAGFQSDAMYNIEQNENYQPKYGYWVIGLQEGVKYSVFQDGSSHTPFAPFIVPLSVIICPDRVGVFVDYEACTVSFFNITNHGFLIYKFSQCSFSKPVFPYLNPRKCTVPMTLCSPSS [rhesus TRIM5α, 332-344 = GAPGTRFPTLT]",0.644 ± 0.08
6,"MASGILLNVKEEVTCPICLELLTEPLSLHCGHSFCQACITANHKKSMLYKEGERSCPVCRISYQPENIQPNRHVANIVEKLREVKLSPEEGQKVDHCARHGEKLLLFCQEDSKVICWLCERSQEHRGHHTFLMEEVAQEYHVKLQTALEMLRQKQQEAEKLEADIREEKASWKIQIDYDKTNVSADFEQLREILDWEESNELQNLEKEEEDILKSLTKSETEMVQQTQYMRELISELEHRLQGSMMDLLQGVDGIIKRIENMTLKKPKTFHKNQRRVFRAPDLKGMLDMFRELTDARRYWVDVTLAPNNISHAVIAEDKRQVSSRNPQIMYGARGTLYTFQSLVNFNYCTGVLGSQSITSGKHYWEVDVSKKSAWILGVCAGFQSDAMYNIEQNENYQPKYGYWVIGLQEGVKYSVFQDGSSHTPFAPFIVPLSVIICPDRVGVFVDYEACTVSFFNITNHGFLIYKFSQCSFSKPVFPYLNPRKCTVPMTLCSPSS [rhesus TRIM5α, 332-344 = GARGTLYTFQSLV]",0.772 ± 0.066
7,"MASGILLNVKEEVTCPICLELLTEPLSLHCGHSFCQACITANHKKSMLYKEGERSCPVCRISYQPENIQPNRHVANIVEKLREVKLSPEEGQKVDHCARHGEKLLLFCQEDSKVICWLCERSQEHRGHHTFLMEEVAQEYHVKLQTALEMLRQKQQEAEKLEADIREEKASWKIQIDYDKTNVSADFEQLREILDWEESNELQNLEKEEEDILKSLTKSETEMVQQTQYMRELISELEHRLQGSMMDLLQGVDGIIKRIENMTLKKPKTFHKNQRRVFRAPDLKGMLDMFRELTDARRYWVDVTLAPNNISHAVIAEDKRQVSSRNPQIMYQARGTLFTFQSFVNFNYCTGVLGSQSITSGKHYWEVDVSKKSAWILGVCAGFQSDAMYNIEQNENYQPKYGYWVIGLQEGVKYSVFQDGSSHTPFAPFIVPLSVIICPDRVGVFVDYEACTVSFFNITNHGFLIYKFSQCSFSKPVFPYLNPRKCTVPMTLCSPSS [rhesus TRIM5α, 332-344 = QARGTLFTFQSFV]",0.924 ± 0.058
8,"MASGILLNVKEEVTCPICLELLTEPLSLHCGHSFCQACITANHKKSMLYKEGERSCPVCRISYQPENIQPNRHVANIVEKLREVKLSPEEGQKVDHCARHGEKLLLFCQEDSKVICWLCERSQEHRGHHTFLMEEVAQEYHVKLQTALEMLRQKQQEAEKLEADIREEKASWKIQIDYDKTNVSADFEQLREILDWEESNELQNLEKEEEDILKSLTKSETEMVQQTQYMRELISELEHRLQGSMMDLLQGVDGIIKRIENMTLKKPKTFHKNQRRVFRAPDLKGMLDMFRELTDARRYWVDVTLAPNNISHAVIAEDKRQVSSRNPQIMYQAPGTRYTFQTLVNFNYCTGVLGSQSITSGKHYWEVDVSKKSAWILGVCAGFQSDAMYNIEQNENYQPKYGYWVIGLQEGVKYSVFQDGSSHTPFAPFIVPLSVIICPDRVGVFVDYEACTVSFFNITNHGFLIYKFSQCSFSKPVFPYLNPRKCTVPMTLCSPSS [rhesus TRIM5α, 332-344 = QAPGTRYTFQTLV]",0.534 ± 0.2

# ± gives the standard deviation of the averaged measurements. Restriction of a single-cycle SIVsab GFP reporter by TRIM5α v1-loop variants in CRFK cells. Human variants: read share among cells still uninfected after two challenges over input, higher = gained restriction. Rhesus variants: share among infected cells over input, higher = lost restriction. Reporter dose not given per row. No active / inactive call per row; the paper calls a change when both replicates lie above its controls (mean + 2 SD of stop or wild-type variants, or the top frameshift score). Residues outside the varied loop are taken from Swiss-Prot. The paper reads the human single-substitution scores as noise; they and the rhesus combinations repeat poorly (rank correlation 0.3 to 0.4), indel scores repeat only for the top variants, rhesus substitutions well (0.9).
